# Screen size: about 360,000 compounds; about 16,000 (4.4%) were called active. This list was built around the results that the source calls inconclusive (neither active nor inactive); the mix of calls is not that of the screen. Calls come from the whole dose curve; as a rule, active = well fitted inhibition curve with a large enough effect; inconclusive = small, poorly fitted or top-dose-only effect; inactive = no such curve, though single readings can be large or run the other way. Where the call is inconclusive, the potency comes from a doubtful curve fit.
# Biological target: Bromodomain adjacent to zinc finger domain protein 2B (Homo sapiens) (UniProt Q9UIF8)
# Assay: qHTS Assay for Inhibitors of BAZ2B; note: nearly all actives have a fitted effect of over 60% in size
# Details: AlphaScreen BAZ2B-H3K14Ac peptide displacement; series mostly up to 114 µM
# Summary of the method: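 Protein-peptide AlphaScreen: BAZ2B 50 nM, b-H3K14Ac 50 nM, 1x PBS pH 7.4 + 0.01% Tween-20. Preincubation 30 min RT; cpd 30 min RT (top 110 uM); beads 20 min RT, light-protected.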
# Potency is the fitted concentration of half-maximal effect; tags give direction and shape of the fitted curve.
# Sequence of UniProt Q9UIF8 (Q9UIF8 whole entry, looked up, the tested form may be a part): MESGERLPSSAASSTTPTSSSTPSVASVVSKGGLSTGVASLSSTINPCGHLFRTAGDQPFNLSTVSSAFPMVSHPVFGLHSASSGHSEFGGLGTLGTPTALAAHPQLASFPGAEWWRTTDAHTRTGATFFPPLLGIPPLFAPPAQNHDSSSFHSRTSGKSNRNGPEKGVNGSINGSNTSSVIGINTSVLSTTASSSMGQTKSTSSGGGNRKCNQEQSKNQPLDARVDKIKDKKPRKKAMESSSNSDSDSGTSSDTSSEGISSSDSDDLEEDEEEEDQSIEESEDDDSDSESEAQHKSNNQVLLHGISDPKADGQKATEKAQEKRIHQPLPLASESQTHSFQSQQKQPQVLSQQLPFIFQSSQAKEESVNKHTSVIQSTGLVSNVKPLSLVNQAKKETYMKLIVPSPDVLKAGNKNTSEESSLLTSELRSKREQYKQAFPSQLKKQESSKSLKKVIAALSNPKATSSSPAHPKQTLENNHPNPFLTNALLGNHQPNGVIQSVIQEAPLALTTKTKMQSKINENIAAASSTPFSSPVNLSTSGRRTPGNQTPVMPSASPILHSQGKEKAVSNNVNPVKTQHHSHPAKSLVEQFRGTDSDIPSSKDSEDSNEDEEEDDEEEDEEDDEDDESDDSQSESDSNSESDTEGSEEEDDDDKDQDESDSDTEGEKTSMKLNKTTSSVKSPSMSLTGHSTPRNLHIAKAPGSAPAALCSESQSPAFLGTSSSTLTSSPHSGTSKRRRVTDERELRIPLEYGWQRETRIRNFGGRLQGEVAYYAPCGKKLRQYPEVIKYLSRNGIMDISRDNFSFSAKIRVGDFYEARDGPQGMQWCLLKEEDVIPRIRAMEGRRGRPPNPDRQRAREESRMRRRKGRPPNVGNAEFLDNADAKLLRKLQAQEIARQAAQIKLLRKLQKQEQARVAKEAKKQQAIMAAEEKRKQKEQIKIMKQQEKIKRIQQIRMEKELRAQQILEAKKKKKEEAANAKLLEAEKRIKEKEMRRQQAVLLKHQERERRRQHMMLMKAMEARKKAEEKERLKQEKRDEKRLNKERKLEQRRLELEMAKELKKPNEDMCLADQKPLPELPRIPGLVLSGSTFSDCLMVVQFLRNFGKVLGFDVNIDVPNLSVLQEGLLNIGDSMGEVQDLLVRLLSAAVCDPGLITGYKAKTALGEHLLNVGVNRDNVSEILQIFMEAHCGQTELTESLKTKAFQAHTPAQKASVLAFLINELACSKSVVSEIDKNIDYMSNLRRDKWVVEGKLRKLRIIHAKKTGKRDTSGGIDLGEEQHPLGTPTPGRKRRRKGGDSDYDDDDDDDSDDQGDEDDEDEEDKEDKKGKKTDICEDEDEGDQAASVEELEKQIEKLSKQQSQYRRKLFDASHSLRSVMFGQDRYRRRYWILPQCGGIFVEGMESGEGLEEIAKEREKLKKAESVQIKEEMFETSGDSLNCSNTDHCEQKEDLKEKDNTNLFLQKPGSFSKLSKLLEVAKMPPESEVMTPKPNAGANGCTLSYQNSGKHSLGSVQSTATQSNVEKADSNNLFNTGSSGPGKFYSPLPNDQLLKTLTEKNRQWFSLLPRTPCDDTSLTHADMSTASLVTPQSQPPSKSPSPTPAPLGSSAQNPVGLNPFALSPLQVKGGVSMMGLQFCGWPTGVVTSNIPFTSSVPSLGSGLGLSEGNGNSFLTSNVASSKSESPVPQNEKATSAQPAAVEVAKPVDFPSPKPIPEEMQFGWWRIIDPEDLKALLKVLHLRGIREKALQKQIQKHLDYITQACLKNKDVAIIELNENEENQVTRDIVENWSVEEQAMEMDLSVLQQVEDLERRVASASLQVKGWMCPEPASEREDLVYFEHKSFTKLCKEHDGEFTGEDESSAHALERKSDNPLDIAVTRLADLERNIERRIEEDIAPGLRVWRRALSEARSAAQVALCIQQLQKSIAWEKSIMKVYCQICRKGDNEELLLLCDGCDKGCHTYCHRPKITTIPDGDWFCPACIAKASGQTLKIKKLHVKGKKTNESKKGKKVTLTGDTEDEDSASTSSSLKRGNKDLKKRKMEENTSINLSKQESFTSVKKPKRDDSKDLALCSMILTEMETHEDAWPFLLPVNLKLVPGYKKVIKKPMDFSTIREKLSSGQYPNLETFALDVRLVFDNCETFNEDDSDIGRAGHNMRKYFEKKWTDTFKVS
row,Compound,Potency
1,CCOc1ccc(-n2nc3ccc(NC(=O)CC)cc3n2)cc1,inactive
2,O=C(O)CCn1cc(/C=C\C(=O)c2ccc(Cl)cc2)c(-c2cccc(Br)c2)n1,"inconclusive: 50.1 µM [inhibitor, partial curve]"
3,O=C1c2ccccc2-c2onc3ccc(NCCCn4ccnc4)c1c23,active: 14.1 µM
4,CSc1ncc(F)c(N(CCO)CCO)n1,inactive
5,CCNC(=O)c1ccc2nc(CCc3ccccc3)oc2c1,inactive
6,CCOc1ccc(NC(=S)NC(=O)c2c(Br)cnn2C)c([N+](=O)[O-])c1,"inconclusive: 10 µM [inhibitor, full curve]"
7,O=C(Nc1ccccc1C(=O)NC1CC1)c1ccc([N+](=O)[O-])o1,"inconclusive: 89.1 µM [inhibitor, single point]"
8,Cc1coc2c(O)cc3c(c12)OC1(N2CCCCC2)C(=O)NCCCC31 (centres undefined),"inconclusive: 44.7 µM [inhibitor, partial curve]"
9,Oc1ccc(Br)cc1C=Nc1ccc2c3c(cccc13)CC2,"inconclusive: 50.1 µM [inhibitor, partial curve]"
10,N#Cc1c(/N=C\c2ccc(O)c([N+](=O)[O-])c2)sc2c1CCCC2,"inconclusive: 63.1 µM [inhibitor, partial curve]"
11,O=C(Cc1ccc(S(=O)(=O)N2CCCC2)s1)Nc1nc2c(s1)CCCC2,"inconclusive: 28.2 µM [inhibitor, full curve]"
12,Cc1[nH]c2ccccc2c1/C=N/Nc1nc(Nc2ccc(F)cc2)nc(N2CCOCC2)n1,active: 50.1 µM
13,O=C(N/N=C/c1ccc2ncccc2c1)c1ccco1,inactive
14,Cc1noc(C(=O)N2CCN(c3ccccc3)CC2)c1Cl,inactive
15,CCN(CC)S(=O)(=O)c1nnc(NC(=O)c2ccccc2Cl)s1,"inconclusive: 2.82 µM [inhibitor, partial curve, poor fit]"
16,CCC(=O)Nc1ccc(C)cc1-c1nc2ccccc2n(CC(=O)Nc2ccccc2Cl)c1=O,inactive
17,Cc1ccc(S(=O)(=O)NC(=O)c2ccc(-c3ccc(-c4ccccc4)cc3)o2)c(C)c1,"inconclusive: 44.7 µM [inhibitor, partial curve]"
18,COCc1[nH][nH]c(=O)c1/C=N/N1CCOCC1,"inconclusive: 79.4 µM [inhibitor, single point]"
19,COc1ccc(NC(=O)Cn2c(=O)n(CC3CCCO3)c(=O)c3ccccc32)c(OC)c1 (centres undefined),inactive
20,COc1ccc(/C=C2\CCC(C3CCCC3)C2=O)c(OC)c1 (centres undefined),inactive
21,N#Cc1cc2c([nH]c1=S)CCCC2,active: 31.6 µM
22,O=C(c1ccc(Cl)cc1)N(Cc1ccco1)Cc1ccco1,"inconclusive: 79.4 µM [inhibitor, partial curve]"
23,Oc1c(Br)cc(Br)cc1/C=N/c1nccs1,"inconclusive: 79.4 µM [inhibitor, single point]"
24,O=C(c1csc(Nc2ccccc2Cl)n1)N1CCCC1,inactive
25,Cc1nn2c(C)c(C(=O)N3CCN(c4ccccc4)CC3)cnc2c1-c1ccccc1,"inconclusive: 70.8 µM [inhibitor, single point]"

row,Compound,Potency
1,C=CCOc1c(Cl)cc(CNc2ccc(N(C)C)cc2)cc1OC,active: 25.1 µM
2,O=S(=O)(/N=C(\Sc1ccccc1)c1ccccc1)c1ccc(Cl)cc1,inactive
3,O=C1CCC(=O)N1c1ccccc1,"inconclusive: 39.8 µM [inhibitor, single point]"
4,Cc1cn([C@@H](CCCCN)C(=O)NCCCCCCCCCCC(=O)N2CCNCC2)nn1,"inconclusive: 89.1 µM [inhibitor, single point]"
5,COc1ccccc1N1CCN(C(=O)c2ccc(CSc3ccccc3)cc2)CC1,"inconclusive: 89.1 µM [inhibitor, single point]"
6,CN(Cc1ccno1)C(=O)CC1C(=O)NCCN1CC(c1ccccc1)c1ccccc1 (centres undefined),inactive
7,Cc1cc(/C=C2/C(=O)N(C)C(=S)N2C)ccc1N1CCCC1,active: 14.1 µM
8,O=C1NC(=Nc2ccccc2)S/C1=C\c1cccn1-c1ccccc1,"inconclusive: 70.8 µM [inhibitor, single point]"
9,O=C(CCS(=O)(=O)c1cc(Br)cc2c1N(C(=O)C1CC1)CC2)N1CCN(c2ccc(F)cc2)CC1,inactive
10,O=C(NCC(Cl)c1ccc2ccccc2c1)c1c(F)cccc1F (centres undefined),"inconclusive: 79.4 µM [inhibitor, single point]"
11,Cc1nn(-c2ccccc2)c2ncc(C(=O)c3cc(Cl)ccc3O)cc12,"inconclusive: 39.8 µM [inhibitor, full curve, poor fit]"
12,CN(c1ccccc1)S(=O)(=O)c1cccc(C(=O)OCC(=O)NCc2ccco2)c1,"inconclusive: 79.4 µM [inhibitor, single point]"
13,COc1ccc(NC(=O)CN2CCCN(S(=O)(=O)c3ccc(Br)cc3)CC2)c(OC)c1,"inconclusive: 28.2 µM [inhibitor, full curve]"
14,Cc1c(C)n(-c2ccccc2)c2ncnc(NCCCN(C)C)c12,"inconclusive: 79.4 µM [inhibitor, single point]"
15,CC1=CC(C)(C)NC(=S)N1c1ccccc1C,"inconclusive: 79.4 µM [inhibitor, single point]"
16,CC(=O)Nc1ccc(S(=O)(=O)N(C)CC(=O)OCC(=O)N2CCN(C(=O)c3ccco3)CC2)cc1,"inconclusive: 56.2 µM [inhibitor, partial curve]"
17,CCC(C)(C)n1nnnc1C(c1cc2ccc(OC)cc2[nH]c1=O)N1CCc2ccccc21 (centres undefined),"inconclusive: 70.8 µM [inhibitor, partial curve, poor fit]"
18,CCC1CCCCN1CCCNC(=O)c1ccc(CS(=O)(=O)c2ccccc2C)o1 (centres undefined),inactive
19,COc1ccc(CCNC(=S)Nc2cccc(C)c2C)cc1,"inconclusive: 79.4 µM [inhibitor, single point]"
20,O=C(Nc1cccc(-c2nc3ccccc3o2)c1)c1cc([N+](=O)[O-])ccc1N1CCOCC1,"inconclusive: 89.1 µM [inhibitor, partial curve]"
21,Cc1ccc(Sc2ccc([N+](=O)[O-])cc2[N+](=O)[O-])nc1,active: 44.7 µM
22,CCn1c(C)nc2cc(C(=O)NNC(=S)NC(=O)c3ccccc3)ccc21,inactive
23,CN(C(=O)CCc1nnc(CCCCc2ccccc2)o1)C1CC(C)(C)NC(C)(C)C1,"inconclusive: 70.8 µM [inhibitor, single point]"
24,CC(=O)c1ccc(N2CCN(C(=O)CCS(=O)(=O)c3ccc4c(c3)NC(=O)CS4)CC2)cc1,"inconclusive: 70.8 µM [inhibitor, single point]"
25,COc1ccc(-c2nc3c4cnn(-c5ccccc5F)c4ncn3n2)cc1,inactive

row,Compound,Potency
1,Cc1noc(C)c1S(=O)(=O)NCc1ccc(CN(C)C)cc1,inactive
2,NNc1nc2c(Cl)cccc2s1,active: 44.7 µM
3,Nc1cc2c(cc1C(=O)c1ccccc1)OCCO2,active: 39.8 µM
4,CCC(C)Nc1nc(N)c([N+](=O)[O-])c(Nc2ccccc2OC)n1 (centres undefined),"inconclusive: 35.5 µM [inhibitor, partial curve]"
5,CCOC(=O)c1c(-c2ccccc2Cl)csc1NC(=O)CSc1nc(C)cc(=O)[nH]1,"inconclusive: 70.8 µM [inhibitor, single point]"
6,COc1ccc(CNC(=O)c2c(Nc3ccc(OC)cc3OC)sc(C(=O)c3ccc(Cl)cc3)c2N)cc1,"inconclusive: 25.1 µM [inhibitor, full curve]"
7,O=C(c1ccccc1F)N1CCN(CC2CC3C=CC2C3)CC1 (centres undefined),active: 56.2 µM
8,Cn1ccc(-c2cc(C(=O)O)c3ccccc3n2)n1,"inconclusive: 89.1 µM [inhibitor, single point]"
9,COc1ccc(CNc2oc(-c3ccc(COc4ccc(Cl)cc4)o3)nc2C#N)cc1,"inconclusive: 50.1 µM [inhibitor, partial curve]"
10,CCOC(=O)c1cccc(NC(=O)c2cc(S(=O)(=O)N3CCCCCC3)cn2C)c1,inactive
11,CC(C)(C)C(=O)N1CCN(c2ccc([N+](=O)[O-])cc2-n2cccc2)CC1,"inconclusive: 31.6 µM [inhibitor, full curve, poor fit]"
12,Cc1cccc(C(=O)OCC(=O)c2ccc(CC(=O)N3CCOCC3)s2)c1C,active: 50.1 µM
13,Cc1cc(-c2c(C)[nH]n(-c3ccc(Cl)cc3)c2=O)n[nH]1,active: 28.2 µM
14,Cc1ccc(C(=O)/C=C/c2cn(CC(O)CN3CCc4ccccc43)c3ccccc23)cc1 (centres undefined),"inconclusive: 11.2 µM [inhibitor, full curve]"
15,Cc1cc(-n2c(C)nc3ccccc3c2=O)ccc1NC(=O)c1ccc(C)c([N+](=O)[O-])c1,"inconclusive: 89.1 µM [inhibitor, single point]"
16,O=C(COc1ccccc1)Nc1cccc(-c2ccc(N3CCOCC3)nn2)c1,inactive
17,COc1ccc(-c2noc(COc3cc(C)c(Br)c(C)c3)n2)cc1OC,inactive
18,C=CCNc1nc2ccccc2nc1NS(=O)(=O)c1cccs1,"inconclusive: 89.1 µM [inhibitor, single point]"
19,CCc1ccc(C(=O)NNc2ccc(Cl)cc2)cc1,"inconclusive: 44.7 µM [inhibitor, partial curve]"
20,COc1ccccc1OCc1ccc(C(=O)N/N=C/c2ccco2)cc1,inactive
21,CCOC(=O)c1[nH]c2ccc(F)cc2c1NC(=O)c1ccccc1C(=O)O,inactive
22,Cc1nc2nc(SCc3c(F)cccc3Cl)nn2c(C)c1Cc1ccccc1,inactive
23,CCc1nc2sc3c(N4CCC(C)CC4)ncnc3c2c2c1CCCC2,inactive
24,COc1ccc(-c2csc(NC(=O)C3CC(=O)N(Cc4ccco4)C3)n2)cc1 (centres undefined),"inconclusive: 35.5 µM [inhibitor, partial curve]"

# From PubChem BioAssay AID504333 (National Center for Advancing Translational Sciences (NCATS), 2011)
